Consider 153 variants from a collection of fitness landscapes (doi:10.1126/science.1257360).

Sequences and labels used below:
B1: PhoQ; a variant is named by its letters at X, in order, P23837 (parent)
chain: MKKLLRLFFPLSLRVRFLLATAAVVLVLSLAYGMVALIGYSVSFDKTTFRLLRGESNLFYTLAKWENNKLHVELPENIDKQSPTMTLIYDENGQLLWAQRDVPWLMKMIQPDWLKSNGFHEIEADVNDTSLLLSGDHSIQQQLQEVREDDDDAEMTHSVAVNVYPATSRMPKLTIVVVDTIPVELKSSYMVWSWFIYVLSANLLLVIPLLWVAAWWSLRPIEALAKEVRELEEHNRELLNPATTRELTSLVRNLNRLLKSERERYDKYRTTLTDLTHSLKTPLXXLQXXLRSLRSEKMSVSDAEPVMLEQISRISQQIGYYLHRASMRGGTLLSRELHPVAPLLDNLTSALNKVYQRKGVNISLDISPEISFVGEQNDFVEVMGNVLDNACKYCLEFVEISARQTDEHLYIVVEDDGPGIPLSKREVIFDRGQRVDTLRPGQGVGLAVAREITEQYEGKIVAGESMLGGARMEVIFGRQHSAPKDE

The list shows a part of the results.

Variants of B1 are the subject of this assay. In words: enrichment ratio after two sorts for PhoP signalling (ratio (wild type AVST 3.29)); higher = more functional. The conditions noted are these: with PhoP (E. coli).
MLRR: the enrichment ratio was ≤ 0.25.

As for PLAE, the enrichment ratio was ≤ 0.25.

With ISCV, the enrichment ratio came out at 1.12.

On to HLNV, for which the enrichment ratio is ≤ 0.25.

Take VVRN: the enrichment ratio was ≤ 0.25.

Turning to SNYR, the enrichment ratio is ≤ 0.25.

On to SIYR, for which the enrichment ratio worked out at 0.301.

With EMEL, the enrichment ratio is ≤ 0.25.

SRDK: the enrichment ratio is ≤ 0.25.

On to WNWW, for which the enrichment ratio is ≤ 0.25.

For the variant QFNI, the enrichment ratio is ≤ 0.25.

Turning to YEVK, the enrichment ratio was ≤ 0.25.

LYHC: the enrichment ratio is ≤ 0.25.

For the variant FTLL, the enrichment ratio is 11.6.

Consider NPYW, for which the enrichment ratio is ≤ 0.25.

As to AAGK, the enrichment ratio was ≤ 0.25.

For the variant IQDF, the enrichment ratio is ≤ 0.25.

For the variant WCRP, the enrichment ratio was ≤ 0.25.

For the variant SPGH, the enrichment ratio is ≤ 0.25.

Turning to RLDK, the enrichment ratio is ≤ 0.25.

For the variant NLWF, the enrichment ratio is ≤ 0.25.

Consider IYHQ, for which the enrichment ratio was ≤ 0.25.

Regarding PMPR, the enrichment ratio was ≤ 0.25.

As to KWPF, the enrichment ratio was ≤ 0.25.

With HSLD, the enrichment ratio was ≤ 0.25.

Turning to MFVQ, the enrichment ratio is ≤ 0.25.

For AAYM, the enrichment ratio was ≤ 0.25.

Regarding LISP, the enrichment ratio is ≤ 0.25.

In the case of FHDT, the enrichment ratio was ≤ 0.25.

For the variant GFIY, the enrichment ratio is ≤ 0.25.

As to HLAT, the enrichment ratio was ≤ 0.25.

As to DPVS, the enrichment ratio was ≤ 0.25.

In the case of IEND, the enrichment ratio is ≤ 0.25.

Turning to TFAA, the enrichment ratio worked out at 6.15.

Take SCQS: the enrichment ratio was ≤ 0.25.

Turning to STHA, the enrichment ratio is ≤ 0.25.

Take APVV: the enrichment ratio is ≤ 0.25.

For ECRL, the enrichment ratio was ≤ 0.25.

Regarding VFFQ, the enrichment ratio was ≤ 0.25.

DMYL: the enrichment ratio was ≤ 0.25.

For the variant DLYY, the enrichment ratio is ≤ 0.25.

Regarding DTND, the enrichment ratio was ≤ 0.25.

For LDSI, the enrichment ratio was ≤ 0.25.

Consider ASIR, for which the enrichment ratio was 0.563.

For the variant IVLQ, the enrichment ratio stood at 0.372.

Consider FLKQ, for which the enrichment ratio is ≤ 0.25.

For the variant EAPI, the enrichment ratio is ≤ 0.25.

Regarding SCEM, the enrichment ratio was ≤ 0.25.

As to VYTW, the enrichment ratio was ≤ 0.25.

With QLWY, the enrichment ratio was ≤ 0.25.

In the case of LTCR, the enrichment ratio was ≤ 0.25.

As to TAVA, the enrichment ratio was ≤ 0.25.

In the case of KHWP, the enrichment ratio was ≤ 0.25.

Take STFH: the enrichment ratio was ≤ 0.25.

SFIH: the enrichment ratio is ≤ 0.25.

Regarding SVCS, the enrichment ratio is 8.61.

Regarding VSTA, the enrichment ratio was ≤ 0.25.

NEHQ: the enrichment ratio is ≤ 0.25.

Regarding AEVW, the enrichment ratio was 1.82.

Consider VMHW, for which the enrichment ratio is ≤ 0.25.

In the case of NGCF, the enrichment ratio is ≤ 0.25.

Regarding FFGK, the enrichment ratio was ≤ 0.25.

Take HGCP: the enrichment ratio is ≤ 0.25.

In the case of HKKF, the enrichment ratio was ≤ 0.25.

As to HRNG, the enrichment ratio was ≤ 0.25.

Regarding DTHK, the enrichment ratio was ≤ 0.25.

In the case of WDIA, the enrichment ratio is ≤ 0.25.

For the variant KDPI, the enrichment ratio is ≤ 0.25.

Take HGWG: the enrichment ratio was ≤ 0.25.

Regarding FEPN, the enrichment ratio was ≤ 0.25.

In the case of RITL, the enrichment ratio is ≤ 0.25.

Consider MPID, for which the enrichment ratio is ≤ 0.25.

Consider NIIL, for which the enrichment ratio is ≤ 0.25.

PWRY: the enrichment ratio was ≤ 0.25.

On to DLQE, for which the enrichment ratio was ≤ 0.25.

For the variant EYIP, the enrichment ratio was ≤ 0.25.

Take WFLF: the enrichment ratio was ≤ 0.25.

Consider YCAE, for which the enrichment ratio was ≤ 0.25.

Turning to HLYI, the enrichment ratio was ≤ 0.25.

Consider MLVN, for which the enrichment ratio is ≤ 0.25.

In the case of RNMA, the enrichment ratio is ≤ 0.25.

For LFMY, the enrichment ratio was ≤ 0.25.

For the variant VDGS, the enrichment ratio was ≤ 0.25.

For the variant LGVR, the enrichment ratio was ≤ 0.25.

For the variant IYLR, the enrichment ratio was ≤ 0.25.

As for TRPD, the enrichment ratio was ≤ 0.25.

DDPN: the enrichment ratio was ≤ 0.25.

For VIVQ, the enrichment ratio was ≤ 0.25.

For the variant YWYG, the enrichment ratio is ≤ 0.25.

On to TFPF, for which the enrichment ratio was ≤ 0.25.

For the variant HVDD, the enrichment ratio was ≤ 0.25.

As to DKQR, the enrichment ratio is ≤ 0.25.

For the variant KEFQ, the enrichment ratio is ≤ 0.25.

In the case of SNQV, the enrichment ratio was determined as 9.2.

For the variant LNHQ, the enrichment ratio was ≤ 0.25.

In the case of DPAT, the enrichment ratio was ≤ 0.25.

For the variant TGSQ, the enrichment ratio is 25.1.

As to LKPI, the enrichment ratio is ≤ 0.25.

Take VCTD: the enrichment ratio was ≤ 0.25.

As for RWMP, the enrichment ratio was ≤ 0.25.

As for HETK, the enrichment ratio was ≤ 0.25.

For NHWC, the enrichment ratio is ≤ 0.25.

HFIF: the enrichment ratio is ≤ 0.25.

With GGSR, the enrichment ratio was ≤ 0.25.

For GSMV, the enrichment ratio is 17.2.

For the variant FGHV, the enrichment ratio was ≤ 0.25.

Take DQFN: the enrichment ratio is ≤ 0.25.

Take AFVG: the enrichment ratio was determined as 4.66.

Regarding ACPI, the enrichment ratio worked out at 9.4.

PLRH: the enrichment ratio was ≤ 0.25.

On to FRYH, for which the enrichment ratio is ≤ 0.25.

As for IPYY, the enrichment ratio was ≤ 0.25.

As to SKHY, the enrichment ratio is ≤ 0.25.

FARQ: the enrichment ratio was ≤ 0.25.

Take GDRL: the enrichment ratio was ≤ 0.25.

On to MNKL, for which the enrichment ratio is ≤ 0.25.

With ENFA, the enrichment ratio is ≤ 0.25.

As to NQIK, the enrichment ratio is ≤ 0.25.

Regarding KHEE, the enrichment ratio is ≤ 0.25.

For the variant NREA, the enrichment ratio is ≤ 0.25.

TKYM: the enrichment ratio amounted to 25.3.

Turning to RMTM, the enrichment ratio is ≤ 0.25.

For EWFL, the enrichment ratio was ≤ 0.25.

With RSDL, the enrichment ratio was ≤ 0.25.

Turning to TCYC, the enrichment ratio was ≤ 0.25.

HSLM: the enrichment ratio stood at 22.1.

Regarding MVVS, the enrichment ratio was ≤ 0.25.

RQGI: the enrichment ratio is ≤ 0.25.

Turning to RESA, the enrichment ratio was ≤ 0.25.

KFCR: the enrichment ratio is ≤ 0.25.

For the variant EYDF, the enrichment ratio is ≤ 0.25.

As to VYHK, the enrichment ratio was ≤ 0.25.

On to ASSS, for which the enrichment ratio is 11.9.

Turning to PGLQ, the enrichment ratio was ≤ 0.25.

As to MFLW, the enrichment ratio was ≤ 0.25.

As for DDFI, the enrichment ratio is ≤ 0.25.

With NYEH, the enrichment ratio was ≤ 0.25.

On to ANNA, for which the enrichment ratio is ≤ 0.25.

As to WGGL, the enrichment ratio is ≤ 0.25.

Regarding YMCD, the enrichment ratio was ≤ 0.25.

As to MPQD, the enrichment ratio is ≤ 0.25.

For the variant ARSE, the enrichment ratio is ≤ 0.25.

With PVDE, the enrichment ratio was ≤ 0.25.

For AQLY, the enrichment ratio was found to be 9.1.

Consider MGWH, for which the enrichment ratio amounted to 5.63.

Consider KNLG, for which the enrichment ratio is ≤ 0.25.

For ETVD, the enrichment ratio is ≤ 0.25.

With PANW, the enrichment ratio is ≤ 0.25.

GWWW: the enrichment ratio was ≤ 0.25.

Regarding ESAL, the enrichment ratio is ≤ 0.25.

As to RLYD, the enrichment ratio was ≤ 0.25.

For SHPV, the enrichment ratio was ≤ 0.25.

As to WHMM, the enrichment ratio was ≤ 0.25.
